Source: the supplement of paper PMC7826260
Some of the results follow. Each Rep nickase domain was tested in vitro on the same pool of single strands (3 µM enzyme, 1 h, 37 °C); shown is the middle of each 90-letter strand. A value is the log2 ratio of uncut reads to the pool without enzyme; uncut sequences lie near 0, cut ones below; no hit call is given. The scaling is to total reads; uncut strands gain when others are lost, and binding without cutting may add a little.

Key:
Experiment in all cases: uncleaved DNA left, log2 of reads against the no-enzyme library (log2 ratio); higher = less cleavage (more negative = more Rep cleavage of the k-mer); sequences stand for … in CTCGTCCG…ACCGGAGA
[1] = tested on: T1, Rep nickase domain of Muscovy duck circovirus
T1 sequence (residues 1-111 of Rep, tag left off): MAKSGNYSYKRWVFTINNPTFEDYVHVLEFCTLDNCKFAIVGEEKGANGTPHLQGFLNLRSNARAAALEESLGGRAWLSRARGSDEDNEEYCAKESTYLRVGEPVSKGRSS
Protocol: (§1)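 A pool of 90-nt single-stranded DNAs with seven random bases just before the constant AC of the nick site (name = the seven bases) was cut by 3 µM recombinant His6-SUMO-tagged Rep nickase domain (300 nM DNA, 50 mM HEPES pH 8.0, 50 mM NaCl, 1 mM MnCl2, 1 h, 37 °C, three replicates). Uncut DNA was amplified and sequenced.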

[2] = tested on: T2, Rep nickase domain of banana bunchy top virus
T2 sequence (residues 1-94 of Rep, tag left off): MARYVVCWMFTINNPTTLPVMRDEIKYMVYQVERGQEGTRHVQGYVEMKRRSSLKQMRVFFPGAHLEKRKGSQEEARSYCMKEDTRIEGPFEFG
Protocol: as §1

[3] = tested on: T3, Rep nickase domain of cabbage leaf curl virus
T3 sequence (residues 1-116 of Rep, tag left off): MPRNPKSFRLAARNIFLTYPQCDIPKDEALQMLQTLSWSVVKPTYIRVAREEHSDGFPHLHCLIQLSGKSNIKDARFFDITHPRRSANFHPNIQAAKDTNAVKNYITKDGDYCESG
Protocol: as §1

[4] = tested on: T4, Rep nickase domain of chickpea chlorotic dwarf virus
T4 sequence (residues 1-124 of Rep, tag left off): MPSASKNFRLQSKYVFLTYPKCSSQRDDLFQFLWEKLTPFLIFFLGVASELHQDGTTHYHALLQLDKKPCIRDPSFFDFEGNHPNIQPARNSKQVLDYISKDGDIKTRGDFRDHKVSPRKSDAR
Protocol: as §1

[5] = tested on: T5, Rep nickase domain of faba bean necrotic yellows virus
T5 sequence (residues 1-98 of Rep, tag left off): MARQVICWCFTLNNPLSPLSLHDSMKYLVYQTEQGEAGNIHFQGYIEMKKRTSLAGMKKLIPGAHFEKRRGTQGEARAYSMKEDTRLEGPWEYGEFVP
Protocol: as §1

[6] = tested on: T6, Rep nickase domain of maize striate mosaic virus
T6 sequence (residues 1-117 of Rep, tag left off): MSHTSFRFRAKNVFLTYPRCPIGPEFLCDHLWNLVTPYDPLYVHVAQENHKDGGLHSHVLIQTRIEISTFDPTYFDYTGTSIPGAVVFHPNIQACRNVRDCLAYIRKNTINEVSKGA
Protocol: as §1

[7] = tested on: T7, Rep nickase domain of porcine circovirus 2
T7 sequence (residues 2-116 of Rep, tag left off): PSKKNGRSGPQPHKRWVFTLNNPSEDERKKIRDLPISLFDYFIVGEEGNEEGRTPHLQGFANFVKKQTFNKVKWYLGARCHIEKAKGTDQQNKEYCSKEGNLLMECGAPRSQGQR
Protocol: as §1

[8] = tested on: T8, Rep nickase domain of tomato yellow leaf curl virus
T8 sequence (residues 1-136 of Rep, tag left off): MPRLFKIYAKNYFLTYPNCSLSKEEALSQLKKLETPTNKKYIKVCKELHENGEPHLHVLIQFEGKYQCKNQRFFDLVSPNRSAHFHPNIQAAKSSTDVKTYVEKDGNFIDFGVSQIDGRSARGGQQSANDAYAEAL
Protocol: as §1

[9] = tested on: T9, Rep nickase domain of wheat dwarf virus
T9 sequence (residues 1-137 of Rep, tag left off): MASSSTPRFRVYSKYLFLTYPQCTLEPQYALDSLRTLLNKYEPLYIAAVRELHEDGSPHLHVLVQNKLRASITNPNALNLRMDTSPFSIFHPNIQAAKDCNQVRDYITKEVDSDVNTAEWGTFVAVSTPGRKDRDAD
Protocol: as §1

Sequence | uncleaved DNA left (log2) [1] | uncleaved DNA left (log2) [2] | uncleaved DNA left (log2) [3] | uncleaved DNA left (log2) [4] | uncleaved DNA left (log2) [5] | uncleaved DNA left (log2) [6] | uncleaved DNA left (log2) [7] | uncleaved DNA left (log2) [8] | uncleaved DNA left (log2) [9]
TAAAATG | 0.0925 | 0.0243 | -1.32 | -2.54 | 0.0271 | -1.18 | 0.22 | 0.0625 | -0.0708
ACTGCCA | 0.00972 | 0.00779 | -0.065 | -0.248 | 0.0126 | -0.188 | -0.0635 | 0.0397 | -0.0137
TTTAGCT | -0.0265 | -0.107 | -0.472 | -1.62 | -0.0442 | -1.15 | -0.163 | 0.0144 | -0.171
GCCATCC | 0.000336 | 0.0981 | 0.0801 | 0.378 | -0.027 | -0.0566 | 0.0521 | 0.0782 | -0.165
CTTGCTT | -0.179 | -0.222 | -0.651 | -1.82 | -0.13 | -1.2 | -0.911 | -0.124 | -0.245
CGTGCCC | -0.168 | -0.0573 | -0.0843 | 0.00958 | -0.173 | -0.206 | -0.107 | -0.0425 | -0.166
AGTCAAT | 0.0103 | -0.0584 | 0.276 | 0.437 | -0.201 | 0.485 | -3.44 | 0.00192 | 0.109
GTTGACG | 0.0191 | 0.0122 | -0.524 | -0.213 | -0.0247 | -0.601 | 0.18 | 0.124 | -0.0391
CATTTTT | -3.35 | -3.77 | -1.65 | -3.14 | -1.33 | -0.946 | -3.76 | -0.089 | -0.728
GTGTTGG | -0.0472 | 0.0443 | 0.0629 | 0.189 | 0.0127 | -0.2 | 0.0675 | 0.0625 | -0.0144
GAAGCCT | -0.00386 | -0.0428 | -0.268 | -1.6 | 0.00263 | 0.343 | -0.231 | -0.0502 | -0.0907
CGCATAA | -0.0572 | -0.0258 | -0.421 | -0.305 | -0.0632 | -0.687 | -0.0529 | -0.0495 | -0.0603
TGCACTC | -0.1 | 0.0208 | 0.105 | 0.321 | -0.164 | 0.262 | 0.0303 | 0.0356 | 0.00596
AGACCTC | 0.0671 | -0.0243 | 0.667 | 1.42 | -0.024 | 1.72 | 0.0653 | 0.0448 | 0.125
GGGGTGT | -0.00103 | 0.0512 | 0.756 | 1.7 | -0.00892 | 2.11 | 0.183 | -0.0105 | 0.066
TATCAGT | -0.0289 | -0.136 | -0.444 | -1.53 | -0.0438 | -1.09 | -0.928 | -0.131 | -0.132
CATGTGC | -0.0756 | -0.14 | -0.719 | -0.952 | -0.0752 | -1.16 | 0.119 | 0.0427 | -0.131
ATCGGCG | 0.113 | 0.179 | -0.508 | 0.891 | 0.22 | -0.0793 | 0.297 | 0.103 | 0.0111
TTTCGTC | 0.146 | 0.00468 | 0.047 | -0.362 | 0.0865 | -0.718 | 0.0686 | 0.0476 | -0.0731
TCCACCC | -0.0684 | 0.00124 | 0.128 | -0.702 | -0.0467 | -0.269 | -0.645 | -0.11 | -0.105
GCCGTAA | -0.0855 | -0.0814 | 0.0331 | 0.303 | -0.138 | -0.116 | -0.0866 | -0.105 | -0.149
AGTGAAC | 0.0187 | -0.0129 | 0.0535 | 0.579 | -0.0443 | 1.06 | 0.136 | -0.102 | 0.1
ATGATTT | -0.107 | -0.337 | -0.18 | -2.38 | -0.159 | -0.513 | -1.73 | -0.188 | -0.315
CGGTCTT | -1.02 | -0.27 | 0.134 | -0.349 | -0.26 | 1.03 | -2.74 | -0.0668 | -0.0423
AATCGGG | -0.00698 | -0.0123 | -0.293 | -0.083 | 0.00434 | -0.837 | 0.123 | 0.06 | 0.00892
TCCCATG | -0.0377 | 0.0294 | -0.362 | -0.76 | -0.093 | -1.05 | 0.202 | -0.00653 | -0.0767
CCGTGTT | -2.47 | -0.78 | -2.11 | -1.85 | -1.93 | -0.858 | -2.57 | -0.057 | -2.34
TAAGGGG | 0.108 | 0.0232 | 0.274 | 0.567 | 0.0162 | 0.486 | 0.195 | -0.0891 | 0.0233
TGGGATG | 0.157 | 0.0678 | 0.436 | 1.21 | 0.0105 | 1.44 | 0.178 | -0.0489 | -0.00738
AGCATAA | -0.0884 | -0.0297 | -0.287 | -0.147 | -0.0514 | -0.218 | -0.498 | -0.063 | 0.0115
